In paper PMC4336329 (PLoS ONE, 2015):
The campaign covered roughly 310,000 compounds. About 14,000 (4.5%) showed an effect of 50% or more. The effect is printed as a negative number. The list shows a part of the results.

Target: human ether-à-go-go-related gene (hERG) potassium channel (human, UniProt Q12809)
Experiment: primary screen, population patch clamp on CHO cells stably expressing hERG
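Also: peak tail current of the secondary pulse compared with the same well before compound.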

Sequence of human ether-à-go-go-related gene (hERG) potassium channel (Q12809 whole entry, looked up): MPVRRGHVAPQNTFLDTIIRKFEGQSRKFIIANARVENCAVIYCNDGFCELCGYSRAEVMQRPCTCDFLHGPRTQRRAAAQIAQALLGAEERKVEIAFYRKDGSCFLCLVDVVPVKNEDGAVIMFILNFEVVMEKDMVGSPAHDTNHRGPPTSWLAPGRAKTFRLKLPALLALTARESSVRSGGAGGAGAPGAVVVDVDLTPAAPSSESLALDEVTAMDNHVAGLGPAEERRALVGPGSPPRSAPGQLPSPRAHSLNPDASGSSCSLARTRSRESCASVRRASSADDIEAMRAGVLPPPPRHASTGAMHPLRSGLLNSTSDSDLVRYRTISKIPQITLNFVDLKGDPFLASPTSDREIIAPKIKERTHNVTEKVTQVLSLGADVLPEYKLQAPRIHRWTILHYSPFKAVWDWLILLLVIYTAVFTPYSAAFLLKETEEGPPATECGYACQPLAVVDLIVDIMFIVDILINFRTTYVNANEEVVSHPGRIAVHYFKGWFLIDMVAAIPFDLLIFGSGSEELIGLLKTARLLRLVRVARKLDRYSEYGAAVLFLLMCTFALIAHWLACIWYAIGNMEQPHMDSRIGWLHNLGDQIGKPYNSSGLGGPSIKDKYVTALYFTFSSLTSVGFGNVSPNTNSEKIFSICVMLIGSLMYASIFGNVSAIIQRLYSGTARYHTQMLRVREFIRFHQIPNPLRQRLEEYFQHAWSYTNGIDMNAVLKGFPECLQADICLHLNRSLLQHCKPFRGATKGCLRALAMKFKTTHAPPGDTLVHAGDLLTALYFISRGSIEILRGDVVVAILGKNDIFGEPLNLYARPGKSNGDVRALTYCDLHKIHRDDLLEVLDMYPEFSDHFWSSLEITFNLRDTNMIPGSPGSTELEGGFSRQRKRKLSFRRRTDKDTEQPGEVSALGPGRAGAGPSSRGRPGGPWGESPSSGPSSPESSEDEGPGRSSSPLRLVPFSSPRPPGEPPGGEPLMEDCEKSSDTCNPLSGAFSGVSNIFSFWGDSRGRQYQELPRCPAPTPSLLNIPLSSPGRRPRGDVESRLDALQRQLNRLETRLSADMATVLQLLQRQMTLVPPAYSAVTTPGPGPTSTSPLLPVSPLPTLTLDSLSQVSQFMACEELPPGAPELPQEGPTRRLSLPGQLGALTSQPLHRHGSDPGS

| Compound | hERG current change (%, negative = inhibition) at 10uM |
| --- | --- |
| CCN(CC)CCNC(=O)c1ccc(NC(=O)COc2ccc3c(c2)CCC3)cc1 | -48.5% |
| COCCSc1ccccc1C(=O)NCCc1ccccc1 | -3.39% |
| CCCCCCCN(C(=O)CCl)c1cccc(C)c1 | -6.98% |
| COc1ccc(C(CC(=O)N2CCCC2)C(C)C)cc1 (centres unmarked) | -2.25% |
| COc1cc2[nH]c(=S)n(Cc3ccco3)c(=O)c2cc1OC | -1.76% |
| S=c1nc[nH]c2c1cnn2-c1ccccc1 | 19.4% |
| COc1ccc(CNC(=S)NCc2ccc(OC(C)C)cc2)cc1 | -3.86% |
| Cc1sc2ncnc(NCC(c3ccccc3)N(C)C)c2c1C (centres unmarked) | -40.1% |
| Cc1ccc(N2CC(O)(c3cccs3)[N+]3=C2CCCC3)cc1.[Br-] (centres unmarked) | -32.3% |
| C[C@H](NC(=O)C(c1ccccc1)c1ccccc1)c1ccccc1 | 6.04% |
| Cc1ccc(/C=N/NC(=O)c2ccc3ccccc3c2)s1 | 11.3% |
| O=C(c1ccco1)n1c(=S)nc2ccccn21 | 16.7% |
| Nc1nc(NCc2ccccc2)nc(NCCO)c1[N+](=O)[O-] | -3.94% |
| Cl.N=C(N)N1CCc2ccccc21 | 5.99% |
| Cc1ccsc1-c1nc(C(N)=O)c2[nH]c(=O)n(-c3ccc(Cl)cc3)c2n1 | 1.51% |
| CCN(CC)C1CCS(=O)(=O)C1.Cl (centres unmarked) | 16.1% |
| COCCNC(=O)Cn1nc(C(F)(F)F)c(Cl)c1C | -3.48% |
| CN(CC(=O)Nc1ccc(Cl)cc1)C(=O)c1cccc(S(=O)(=O)NCc2ccccc2)c1 | 16.3% |
| COCCNS(=O)(=O)c1ccc2c3c(cccc13)C(=O)N2C | 20.2% |
| COc1ccccc1N1CCN(C(=O)CN2C(=O)c3cccc4cccc(c34)C2=O)CC1 | 16.9% |
| CC(C)=C1C2CCC1C1C(=O)N(c3nc(-c4ccccc4)c(C)s3)C(=O)C21 (centres unmarked) | -2.93% |
| CCn1ccnc1CN(C)Cc1cn(-c2ccccc2)nc1-c1ccc(OC)cc1F | -44.9% |

| Compound | hERG current change (%, negative = inhibition) at 10uM |
| --- | --- |
| CCCOc1ccc(-c2csc(NC(=O)CN3C(=O)CCC3=O)n2)cc1 | 7.43% |
| C=CC(=O)NCCCc1cc(C(C)(C)C)c(O)c(C(C)(C)C)c1 | -1.74% |
| CN(C)C(=O)c1cc(F)ccc1Sc1cc(Cl)ccc1Cl | -2.59% |
| O=C(c1ccc(CNS(=O)(=O)c2ccc(Br)cc2)cc1)N1CCCC1 | -4.71% |
| O=C1Nc2cc(C(=O)N3CCN(Cc4ccccc4)CC3)ccc2SC1N1CCOCC1 (centres unmarked) | -3.14% |
| N=C1S/C(=C\c2ccco2)C(=O)N1c1ccc2c(c1)OCO2 | 14.7% |
| c1ccc2nc(SCc3cn4ccccc4n3)cnc2c1 | -17% |
| CN(C)S(=O)(=O)Oc1cccc(C(=O)Nc2ccc(Cl)cc2)c1 | -25.9% |
| O=C(NN1C(=O)c2ccccc2NC1c1ccc([N+](=O)[O-])o1)c1ccc(Br)cc1 (centres unmarked) | -72.7% |
| CC1=NN(c2ccc(C)cc2)C(=O)/C1=C\c1ccc(Br)s1 | 3.24% |
| Cc1cccn2c(CNCCCn3ncc4ccccc43)c(C(=O)N3CCCCC3)nc12 | -18.4% |
| COc1ccc(N2C(=O)CSC2c2ccc([N+](=O)[O-])cc2)cc1 (centres unmarked) | -37.3% |
| NC(=O)C1CCN(CC(=O)Nc2ccc(S(=O)(=O)N3CCOCC3)cc2)CC1 | 19% |
| Cc1cc(N2CCC(C)CC2)nc(NCc2ccccc2)n1 | -43.3% |
| CCCn1c(=O)n(C)c(=O)c2c(SCC(=O)NCC(c3ccccc3)N(C)C)nc(CC(C)C)nc21 (centres unmarked) | -66.1% |
| C/C(=N/O)c1ccc(N2C(=O)C3C4C=CC(C3C2=O)C2C3C(=O)N(c5ccc(/C(C)=N/O)cc5)C(=O)C3C42)cc1 (centres unmarked) | -9.19% |
| Cc1cccc(Oc2nc(-c3ccccc3)cc(C)c2S(C)(=O)=O)c1C | -0.844% |
| Cc1ccc(C2(C(F)(F)F)N=C3Sc4cc(C)cc(C)c4N3C(=O)N2)cc1 (centres unmarked) | -4.05% |
| NNC(=S)NCc1ccc2c(c1)OCO2 | 10.9% |
| CC(N1CCOC1=O)S(=O)(=O)c1ccccc1 (centres unmarked) | 1.31% |
| Cc1cccc(NC(=O)CCC(=O)N/N=C/c2ccc(O)cc2O)c1 | -0.696% |
| CCn1cc(C(=O)N2CCN(c3ccc([N+](=O)[O-])cc3)CC2)c(=O)c2ccc(C)nc21 | -70.9% |
